In the supplement of paper PMC8728848:
Some of the results follow.

Key:
Assay in all cases: glycan array binding signal (z-score within array); higher = stronger binding
Conditions in all cases: glycan notation: IUPAC condensed, linker removed
Gal(a1-2)Gal = target: Gal(a1-2)Gal
Procedure, shortened: (§1)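 Glycan array data came from 3228 arrays in the Consortium for Functional Glycomics database, and only arrays with an available protein sequence were kept. Glycan names were put into IUPAC-condensed notation, and columns mapping to the same glycan were averaged. The binding signal is a within-array Z-score, averaged across arrays of one protein sequence run at different concentrations or buffers and across linkers. A negative Z-score can be read as non-binding.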

Gal(a1-3)Gal = target: Gal(a1-3)Gal
Procedure, shortened: as §1

Gal(a1-3)Gal(b1-3)GlcNAc = target: Gal(a1-3)Gal(b1-3)GlcNAc
Procedure, shortened: as §1

Gal(a1-3)Gal(b1-4)Glc = target: Gal(a1-3)Gal(b1-4)Glc
Procedure, shortened: as §1

Gal(a1-3)Gal(b1-4)GlcNAc = target: Gal(a1-3)Gal(b1-4)GlcNAc
Procedure, shortened: as §1

[1] = target: Gal(a1-3)Gal(b1-4)[Fuc(a1-3)]GlcNAc
Procedure, shortened: as §1

Gal(a1-3)GalNAc = target: Gal(a1-3)GalNAc
Procedure, shortened: as §1

[2] = target: Gal(a1-3)[Gal(a1-4)]Gal(b1-4)GlcNAc
Procedure, shortened: as §1

Gal(a1-4)Gal(b1-4)Glc = target: Gal(a1-4)Gal(b1-4)Glc
Procedure, shortened: as §1

Gal(a1-4)Gal(b1-4)GlcNAc = target: Gal(a1-4)Gal(b1-4)GlcNAc
Procedure, shortened: as §1

Gal(a1-4)GlcNAc = target: Gal(a1-4)GlcNAc
Procedure, shortened: as §1

Gal(a1-6)Glc = target: Gal(a1-6)Glc
Procedure, shortened: as §1

Gal(b1-2)Gal = target: Gal(b1-2)Gal
Procedure, shortened: as §1

Gal(b1-3)Gal = target: Gal(b1-3)Gal
Procedure, shortened: as §1

Gal(b1-3)GalNAc = target: Gal(b1-3)GalNAc
Procedure, shortened: as §1

[3] = target: Gal(b1-3)GalNAc(b1-3)Gal(a1-4)Gal(b1-4)Glc
Procedure, shortened: as §1

[4] = target: Gal(b1-3)GalNAc(b1-4)Gal(b1-4)Glc
Procedure, shortened: as §1

[5] = target: Gal(b1-3)GalNAc(b1-4)[Neu5Ac(a2-3)]Gal(b1-4)Glc
Procedure, shortened: as §1

Gal(b1-3)GlcNAc = target: Gal(b1-3)GlcNAc
Procedure, shortened: as §1

[6] = target: Gal(b1-3)GlcNAc(b1-3)Gal(b1-4)Glc
Procedure, shortened: as §1

[7] = target: Gal(b1-3)GlcNAc(b1-3)Gal(b1-4)GlcNAc
Procedure, shortened: as §1

[8] = target: Gal(b1-3)[Fuc(a1-4)]GlcNAc
Procedure, shortened: as §1

[9] = target: Gal(b1-3)[Fuc(a1-4)]GlcNAc(b1-3)Gal(b1-4)GlcNAc
Procedure, shortened: as §1

[10] = target: Gal(b1-3)[Fuc(a1-4)]GlcNAc(b1-3)Gal(b1-4)[Fuc(a1-3)]GlcNAc
Procedure, shortened: as §1

[11] = target: Gal(b1-3)[GlcNAc(b1-6)]GalNAc
Procedure, shortened: as §1

[12] = target: Gal(b1-3)[Neu5Ac(a2-6)]GalNAc
Procedure, shortened: as §1

[13] = target: Gal(b1-3)[Neu5Ac(a2-6)]GlcNAc(b1-6)Gal(b1-4)Glc
Procedure, shortened: as §1

[14] = target: Gal(b1-3)[Neu5Ac(b2-6)]GalNAc
Procedure, shortened: as §1

[15] = target: Gal(b1-4)GalNAc(a1-3)[Fuc(a1-2)]Gal(b1-4)GlcNAc
Procedure, shortened: as §1

[16] = target: Gal(b1-4)GalNAc(b1-3)[Fuc(a1-2)]Gal(b1-4)GlcNAc
Procedure, shortened: as §1

Gal(b1-4)Glc = target: Gal(b1-4)Glc
Procedure, shortened: as §1

Gal(b1-4)Glc6S = target: Gal(b1-4)Glc6S
Procedure, shortened: as §1

Gal(b1-4)GlcNAc = target: Gal(b1-4)GlcNAc
Procedure, shortened: as §1

[17] = target: Gal(b1-4)GlcNAc(b1-2)Man(a1-3)[Gal(b1-4)GlcNAc(b1-2)Man(a1-6)]Man(b1-4)GlcNAc(b1-4)GlcNAc
Procedure, shortened: as §1

[18] = target: Gal(b1-4)GlcNAc(b1-3)Gal(b1-4)Glc
Procedure, shortened: as §1

[19] = target: Gal(b1-4)GlcNAc(b1-3)Gal(b1-4)GlcNAc
Procedure, shortened: as §1

[20] = target: Gal(b1-4)GlcNAc(b1-3)Gal(b1-4)GlcNAc(b1-3)Gal(b1-4)GlcNAc
Procedure, shortened: as §1

[21] = target: Gal(b1-4)GlcNAc(b1-3)Gal(b1-4)[Fuc(a1-3)]GlcNAc(b1-3)Gal(b1-4)[Fuc(a1-3)]GlcNAc
Procedure, shortened: as §1

B1: TREM-2 (Mus musculus), Q99NH8 (protein)
chain: MGPLHQFLLLLITALSQALNTTVLQGMAGQSLRVSCTYDALKHWGRRKAWCRQLGEEGPCQRVVSTHGVWLLAFLKKRNGSTVIADDTLAGTVTITLKNLQAGDAGLYQCQSLRGREAEVLQKVLVEVLEDPLDDQDAGDLWVPEESSSFEGAQVEHSTSRNQETSFPPTSILLLLACVLLSKFLAASILWAVARGRQKPGTPVVRGLDCGQDAGHQLQILTGPGGT
B1 was tested. Which “glycan array binding signal (z-score)” value (Gal(a1-2)Gal) did it give?
The value was -0.324.

What about the “glycan array binding signal (z-score)” value (Gal(a1-3)Gal) of the same binder?
Its value is -0.298.

And the “glycan array binding signal (z-score)” value (Gal(a1-3)Gal(b1-3)GlcNAc)?
Its value is -0.388.

What about the “glycan array binding signal (z-score)” value (Gal(a1-3)Gal(b1-4)Glc) of the same binder?
Its value is -0.38.

What about the “glycan array binding signal (z-score)” value (Gal(a1-3)Gal(b1-4)GlcNAc) of the same binder?
Its value is -0.304.

And the “glycan array binding signal (z-score)” value [1]?
The value was -0.303.

What about the “glycan array binding signal (z-score)” value (Gal(a1-3)GalNAc) of the same binder?
The value was -0.394.

What about the “glycan array binding signal (z-score)” value [2] of the same binder?
Its value is -0.376.

What about the “glycan array binding signal (z-score)” value (Gal(a1-4)Gal(b1-4)Glc) of the same binder?
The value was -0.262.

And the “glycan array binding signal (z-score)” value (Gal(a1-4)Gal(b1-4)GlcNAc)?
Its value is -0.243.

And the “glycan array binding signal (z-score)” value (Gal(a1-4)GlcNAc)?
Its value is -0.395.

And the “glycan array binding signal (z-score)” value (Gal(a1-6)Glc)?
Its value is -0.074.

And the “glycan array binding signal (z-score)” value (Gal(b1-2)Gal)?
The value was -0.285.

And the “glycan array binding signal (z-score)” value (Gal(b1-3)Gal)?
Its value is -0.303.

What about the “glycan array binding signal (z-score)” value (Gal(b1-3)GalNAc) of the same binder?
Its value is -0.379.

And the “glycan array binding signal (z-score)” value [3]?
Its value is -0.352.

And the “glycan array binding signal (z-score)” value [4]?
Its value is -0.393.

And the “glycan array binding signal (z-score)” value [5]?
The value was -0.342.

And the “glycan array binding signal (z-score)” value (Gal(b1-3)GlcNAc)?
The value was -0.4.

What about the “glycan array binding signal (z-score)” value [6] of the same binder?
Its value is -0.276.

What about the “glycan array binding signal (z-score)” value [7] of the same binder?
Its value is -0.421.

And the “glycan array binding signal (z-score)” value [8]?
The value was -0.368.

What about the “glycan array binding signal (z-score)” value [9] of the same binder?
The value was -0.235.

And the “glycan array binding signal (z-score)” value [10]?
Its value is -0.371.

And the “glycan array binding signal (z-score)” value [11]?
The value was -0.349.

What about the “glycan array binding signal (z-score)” value [12] of the same binder?
The value was -0.257.

And the “glycan array binding signal (z-score)” value [13]?
Its value is -0.282.

And the “glycan array binding signal (z-score)” value [14]?
Its value is -0.18.

What about the “glycan array binding signal (z-score)” value [15] of the same binder?
The value was -0.214.

What about the “glycan array binding signal (z-score)” value [16] of the same binder?
Its value is -0.381.

What about the “glycan array binding signal (z-score)” value (Gal(b1-4)Glc) of the same binder?
Its value is -0.273.

And the “glycan array binding signal (z-score)” value (Gal(b1-4)Glc6S)?
Its value is -0.126.

And the “glycan array binding signal (z-score)” value (Gal(b1-4)GlcNAc)?
Its value is -0.424.

What about the “glycan array binding signal (z-score)” value [17] of the same binder?
Its value is -0.308.

What about the “glycan array binding signal (z-score)” value [18] of the same binder?
Its value is -0.274.

What about the “glycan array binding signal (z-score)” value [19] of the same binder?
The value was -0.099.

And the “glycan array binding signal (z-score)” value [20]?
The value was -0.287.

What about the “glycan array binding signal (z-score)” value [21] of the same binder?
Its value is -0.261.
